In PubChem BioAssay AID686971 (National Center for Advancing Translational Sciences (NCATS), 2013):
Among all 360,000 compounds or so, about 7,500 (2.1%) were called active. This list was built around the results that the source calls inconclusive (neither active nor inactive); the mix of calls is not that of the screen. The call rests on the fitted dose curve; in most records, active means well fitted cell-killing curve with a large enough effect; inconclusive means small, poorly fitted or top-dose-only effect, or effect the other way, or another doubt; inactive means no such curve, though single readings can be large or run the other way. No potency is given beside an inconclusive call; the fits are too rough.

Assay: qHTS for induction of synthetic lethality in tumor cells producing 2HG: qHTS for the HT-1080-IDH1KD cell line;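 on activity, negative = toxicity: 0% = DMSO wells and -100% = cell-free medium wells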
Details: HT-1080 IDH1 knockdown viability, ATP luminescence, 48 h; activity, negative = toxicity: at 46.1 µM (top of the series) unless noted
Procedure, shortened: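 Assay cells: HT-1080 with IDH1 knockdown, 750 per well, RPMI/5% FBS. Exposure: 48 h at 37 °C following 2 h pre-incubation. Read: CellTiter-Glo luminescence; fitted concentration-response, curve class assigned.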
Potency means the concentration at half of the fitted maximal effect; tags describe the fitted curve by direction and shape.

Which “activity, negative = toxicity” value does the source give for CN(Cc1ccccc1)C(=O)COC(=O)c1cc(=O)c2ccccc2o1 here?
The value was inactive: -0.0608%.

Which Potency does the source give for O=C(Nc1ccc(C(O)(C(F)(F)F)C(F)(F)F)cc1)c1ccc(Cl)c([N+](=O)[O-])c1 here?
Its Potency is active: 23.1 µM.

For O=S(=O)(c1ccc2ccccc2c1)N(CC(O)CN1CCOCC1)c1ccccc1 (configuration not stated), which activity, negative = toxicity is on record?
Its activity, negative = toxicity is inconclusive: -10.2% [cytotoxic].

Which activity, negative = toxicity does the source give for Cc1ccc(NC(=O)CN2C(=O)NC3(CCc4ccccc43)C2=O)cc1Cl (configuration not stated) here?
Its activity, negative = toxicity is inactive: -3.55% [at 9.24 µM].

Which Potency does the source give for COc1ccc(NS(=O)(=O)c2cccc3ccccc23)cc1 here?
The Potency was inconclusive [cytotoxic, partial curve].

Which “activity, negative = toxicity” value does the source give for CCOc1ccc(-n2c(O)c(/C=N/NC(=O)C3COc4ccccc4O3)c3ccccc3c2=O)cc1 (configuration not stated) here?
Its value is inactive: -22.6%.

With O=C(Nc1ccc(N2CCCC2)cc1)c1ccc2ccccc2c1 as the compound, how does the “activity, negative = toxicity” value read?
Its value is inactive: -0.754%.

With Cc1ccccc1NC(=S)NCCc1ccccc1 as the compound, how does the “activity, negative = toxicity” value read?
Its value is inactive: 0.0664%.

With O=C(Nc1ccccc1Cl)c1ccccc1CC(O)(c1ccccc1)c1ccccc1 as the compound, how does the Potency read?
Its Potency is inconclusive [cytotoxic, single point].

For COc1ccc(CN(C)CC(O)COc2ccc(-c3ccccc3)cc2)cc1OC (configuration not stated), which Potency is on record?
The Potency was active: 20.6 µM.

For O=C(NNC(=O)c1ccccc1-n1cccc1)c1ccc(Cl)nc1, which “activity, negative = toxicity” value is on record?
The value was inactive: -3.29%.

Which Potency does the source give for COc1ccc(CN2C(=O)/C(=C/c3ccncc3)SC2=S)cc1 here?
The Potency was inconclusive [cytotoxic, single point].

For CC(C)n1c(N)c(C#N)c2ccc([N+](=O)[O-])cc2c1=O, which Potency is on record?
The Potency was inconclusive [cytotoxic, single point].

With OC(c1ccc(Cl)c(F)c1)c1ncc(-c2ccc(Cl)cc2)[nH]1 (configuration not stated) as the compound, how does the Potency read?
Its Potency is inconclusive [cytotoxic, partial curve, poor fit].

For COc1ccccc1NS(=O)(=O)c1ccc(C)c(C(=O)NC2CCN(Cc3ccccc3)CC2)c1, which “activity, negative = toxicity” value is on record?
The value was inactive: -15.1%.

Which Potency does the source give for Cc1cccc2nc(=S)n(C(=O)c3ccco3)n12 here?
The Potency was inconclusive [cytotoxic, full curve].

For N#Cc1c(N2CCN(c3ccc([N+](=O)[O-])cc3)CC2)[n+](=O)c2ccc(Cl)cc2n1[O-], which “activity, negative = toxicity” value is on record?
The value was inactive: -1.4%.

For Cc1ccc(-n2c(=O)c3c(c4cc(C)ccc4n3C)n(CC(=O)NCC3CCCO3)c2=O)cc1 (configuration not stated), which “activity, negative = toxicity” value is on record?
Its value is inactive: 12.5%.

Which “activity, negative = toxicity” value does the source give for CCOc1ccc2nc3c(cc2c1)CN(CCCO)C(=NCCOC)S3 here?
The value was inactive: -15.7%.

With Cc1ccc(C23CC4CC(CC(NC(=O)NCCN(C)C)(C4)C2)C3)cc1 as the compound, how does the Potency read?
Its Potency is inconclusive [cytotoxic, single point].

For CC(CCCC(C)(C)O)NCc1cn[nH]c1-c1ccc2c(c1)OCO2 (configuration not stated), which “activity, negative = toxicity” value is on record?
Its value is inactive: 3.67%.

With Cc1ccc(-n2[nH]c(C)c(C=Nc3cc(C)ccn3)c2=O)cc1 as the compound, how does the Potency read?
The Potency was active: 23.1 µM.

For CC[n+]1c(/C=C2\C=C(C)CC(C)C2)sc2ccccc21 (configuration not stated), which Potency is on record?
The Potency was inconclusive [cytotoxic, single point].

Which Potency does the source give for CC(C)(C)c1ccc(C(=O)NNC(=O)c2cccc(Br)c2)cc1 here?
Its Potency is inconclusive [cytotoxic, single point].

Which Potency does the source give for CC1(C(=O)NS(=O)(=O)c2ccc(C#N)cc2)CCN1C(=O)c1ccccc1CCc1ccccc1 (configuration not stated) here?
The Potency was inconclusive [cytotoxic, full curve].

With CN(C)c1ccc(C(C[N+](=O)[O-])c2c(N)n(C)c(=O)n(C)c2=O)c(F)c1C#N (configuration not stated) as the compound, how does the Potency read?
The Potency was inconclusive [cytotoxic, partial curve].

With O=[N+]([O-])/C(C=Nc1ccccc1O)=C\Nc1ccccc1O as the compound, how does the Potency read?
Its Potency is inconclusive [cytotoxic, single point].

With Brc1ccc(C2C3=C(Nc4ncnn42)c2ccccc2OC3c2ccncc2)cc1 (configuration not stated) as the compound, how does the Potency read?
Its Potency is inconclusive [cytotoxic, single point].

Which Potency does the source give for COc1cccc(CNCc2ccc(OC)c3ccccc23)c1OC here?
The Potency was inconclusive [cytotoxic, partial curve].

With CCN(CC(=O)Nc1ccccc1OC)C(=O)CSCC(=O)Nc1ccc(OC)cc1 as the compound, how does the Potency read?
Its Potency is inconclusive [cytotoxic, partial curve].

For NC(=O)C1CCN(C2=C(Cl)C(=O)c3ccccc3C2=O)CC1, which Potency is on record?
The Potency was active: 20.6 µM.

With CN1CCN(S(=O)(=O)Cc2ccc(Cl)cc2)CC1 as the compound, how does the Potency read?
Its Potency is inconclusive [rising, single point].

For C/C=C/c1ccc(OCCN2C(=O)NC(C)(C)C2=O)c(OC)c1, which Potency is on record?
The Potency was inconclusive [rising, single point].

With c1cncc(C2Nc3ccccc3-c3nc4ccccc4n32)c1 (configuration not stated) as the compound, how does the Potency read?
The Potency was inconclusive [cytotoxic, single point].

For COc1ccc(-c2cc(-c3cc(OC)ccc3O)[nH]n2)cc1, which Potency is on record?
The Potency was inconclusive [cytotoxic, partial curve].

With COC(=O)NNC(=S)Nc1cc(OC)ccc1OC as the compound, how does the Potency read?
The Potency was inconclusive [cytotoxic, single point].

Which Potency does the source give for O=C(NCCC1=CCCCC1)NC12CC3CC(CC(C3)C1)C2 here?
The Potency was inconclusive [cytotoxic, single point].

Which “activity, negative = toxicity” value does the source give for CCN(CC(=O)Nc1c(F)cccc1F)C(=O)c1cccc(-n2cccc2)c1 here?
Its value is inactive: 5.91%.

With O=C(Nc1ccccc1)Nc1cccc2ccccc12 as the compound, how does the “activity, negative = toxicity” value read?
Its value is inactive: 10.2%.

For CC(C)c1ccc(/C=C/C2=NNC(=O)CC2)cc1, which “activity, negative = toxicity” value is on record?
The value was inactive: -22.1%.

Which Potency does the source give for CC1=NN(c2ccccc2)C(=O)C1N=Nc1cccc(O)c1 (configuration not stated) here?
The Potency was inconclusive [cytotoxic, partial curve].

Which “activity, negative = toxicity” value does the source give for COc1ccc(Nc2ccc(Cl)cc2)c(C(=O)O)c1 here?
Its value is inactive: 0.0752%.

For O=C(NCC(=O)N1CCN(Cc2ccccc2)CC1)c1cc(Cl)cc([N+](=O)[O-])c1, which Potency is on record?
Its Potency is inconclusive [cytotoxic, single point].

Which Potency does the source give for O=C(Nc1cccc2ccccc12)c1ccc(OC(=S)N2CCOCC2)cc1 here?
The Potency was inconclusive [cytotoxic, full curve, poor fit].

With O=C(/C=C/c1ccc2c(c1)OCCO2)c1ccc(O)cc1 as the compound, how does the Potency read?
Its Potency is inconclusive [cytotoxic, single point].

For O=c1ccc2c(-c3ccccc3S(=O)(=O)O)c3ccc(O)c(O)c3oc-2c1O, which Potency is on record?
Its Potency is active: 14.6 µM.

Which Potency does the source give for Cc1cc(C)cc(NS(=O)(=O)c2ccc3[nH]c(=O)ccc3c2)c1 here?
Its Potency is inconclusive [cytotoxic, single point].
